# Test results published in the BET-seq Pho4 binding data (Le et al. 2018).
# The list shows a part of the results. The energies were worked out here from pooled read counts, against the library average; single values are noisy.
# Biological target: T1, Pho4 (S. cerevisiae) (UniProt P07270)
# T1 sequence: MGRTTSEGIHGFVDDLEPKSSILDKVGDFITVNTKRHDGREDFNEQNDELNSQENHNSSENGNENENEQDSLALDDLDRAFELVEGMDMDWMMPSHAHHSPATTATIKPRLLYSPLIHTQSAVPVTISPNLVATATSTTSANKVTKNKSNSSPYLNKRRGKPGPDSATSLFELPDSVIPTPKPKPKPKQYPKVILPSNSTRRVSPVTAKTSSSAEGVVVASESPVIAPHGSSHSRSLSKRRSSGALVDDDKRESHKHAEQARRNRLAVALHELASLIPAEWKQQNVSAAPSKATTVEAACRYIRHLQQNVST
# Test: relative binding free energy (BET-seq); higher = weaker binding
# Conditions: reference: library average
row,Sequence,relative binding free energy [kcal/mol]
1,CAAGGCACGTGGTGGT,-0.2
2,ATCGACACGTGTCGGG,0.26
3,TGAATCACGTGTAGGG,0.21
4,CTGGCCACGTGAAGGG,0.11
5,GTGAACACGTGGGTCA,-0.13
6,AGTTACACGTGTGGAG,0.08
7,AATGGCACGTGTGCGA,0.04
8,TAGGTCACGTGCAGGT,0
9,TGGATCACGTGCTCGG,0.13
10,AGCTTCACGTGAAGGG,0.31
11,TGTAGCACGTGGTGTC,-0.12
12,GACTACACGTGGGGTT,-0.1
13,TGTTGCACGTGACTGT,0.1
14,AGTTGCACGTGTTAAT,0.04
15,GTCGCCACGTGTGAGG,-0.02
16,TACGACACGTGAGGTG,0.05
17,CTGGGCACGTGGGACT,-0.18
18,TTTAACACGTGGTTAA,-0.15
19,ATAGACACGTGATGGA,0.1
20,GTGAGCACGTGCGTAG,-0.07
21,GTTTACACGTGGAATA,0.3
22,TGGGTCACGTGATTGT,0.36
23,TTTTTCACGTGTTTAA,0.37

row,Sequence,relative binding free energy [kcal/mol]
1,GAGGACACGTGTCTGT,0.13
2,ATGTGCACGTGTGGAT,0.08
3,AAATGCACGTGTTGGG,-0.05
4,CGGCACACGTGGGTGG,-0.1
5,GTGTTCACGTGATTAA,0.31
6,AGTACCACGTGTGGGG,-0.16
7,TTAAGCACGTGGAACG,0.13
8,GGTGGCACGTGCCGAG,-0.13
9,AGGATCACGTGGGCCG,0.12
10,AAGTGCACGTGCAGTT,-0.12
11,GTAGGCACGTGGATTT,0.02
12,TGGGCCACGTGGGAAG,-0.17
13,GATCGCACGTGTTTTT,0.12
14,TTATTCACGTGCTTCG,0.34
15,TAGTCCACGTGTATGT,0.06
16,GTAGGCACGTGAGTCG,0.17
17,AGTGCCACGTGGGTAT,-0.28
18,AGTGGCACGTGATTGC,-0.02
19,TTTATCACGTGAATAA,0.34
20,AGGGTCACGTGTATCT,0.09
21,ATCTTCACGTGGTAGG,0.08
22,ATCTACACGTGAGGGG,0.15
23,TTTTGCACGTGTGTCG,0.13

row,Sequence,relative binding free energy [kcal/mol]
1,AGGTTCACGTGGTTCG,0.22
2,GCTTGCACGTGTGTTA,0.03
3,TATGGCACGTGATTCT,-0.04
4,TTTGACACGTGTGCGT,-0.07
5,TCGCTCACGTGGTTGG,0.2
6,CGGTTCACGTGCTTTG,0.41
7,ATGTGCACGTGTACTT,0.08
8,TTAATCACGTGGCATT,0.02
9,TGGGTCACGTGCTTGC,0.08
10,AGTATCACGTGAAGTG,0.26
11,TCAGTCACGTGTGTCG,0.14
12,GATTACACGTGGTCGG,0.04
13,GTGCCCACGTGGGGTG,-0.32
14,GTGCGCACGTGGCGTT,-0.17
15,TTGTTCACGTGAGCAT,0.29
16,CTTTGCACGTGATTGG,0.09
17,TGATTCACGTGCTGTA,0.26
18,TTATTCACGTGGAAAT,0.36
19,CTGTGCACGTGGGAGA,-0.05
20,GTAGGCACGTGGACTT,-0.05
21,TGCCGCACGTGTGGAG,-0.05
22,CGAGTCACGTGGGGAG,0.01
23,GGAAGCACGTGGATGA,-0.01

row,Sequence,relative binding free energy [kcal/mol]
1,GTTGACACGTGAGGAT,0.31
2,TTAATCACGTGTGTAT,0.14
3,TGTGGCACGTGAGTGC,0.12
4,GTCGGCACGTGGAGGC,0.12
5,TAATTCACGTGTATAT,0.27
6,TCTGTCACGTGCGAGG,0.19
7,TAGGTCACGTGTGAGA,0.14
8,ACTATCACGTGTAGTT,0.15
9,AGATACACGTGGTTAT,0.04
10,TGGTCCACGTGTTGGG,0.07
11,ATTGACACGTGGTGGC,0.01
12,AGATGCACGTGACGTG,0.15
13,TTTTACACGTGGGATA,-0.05
14,TAACGCACGTGTAGGG,0
15,TGTACCACGTGTGTGT,-0.16
16,GTAAGCACGTGAGAGG,0.24
17,AGTTTCACGTGTAGTA,0.34
18,AAGGGCACGTGGGTAG,-0.22
19,CAGGACACGTGGGGGA,-0.09
20,CTGTACACGTGGATAT,0.19
21,ATTGTCACGTGATGGA,0.25
22,GGATGCACGTGCCGGT,-0.02
23,AGCAGCACGTGGTATG,-0.18

row,Sequence,relative binding free energy [kcal/mol]
1,GTGAACACGTGCTGTG,-0.11
2,GGGACCACGTGTGGGT,-0.01
3,CTTTTCACGTGAGAAT,0.42
4,GGGAACACGTGGGTCT,-0.08
5,AGAGACACGTGAGGTT,0.29
6,CGGTACACGTGTGTGA,0.13
7,GGCTGCACGTGGGGCA,-0.08
8,GAGTCCACGTGTTAGT,0.32
9,TATCGCACGTGTTTGT,-0.02
10,GTTGGCACGTGGAAGC,0.02
11,TGTTTCACGTGCGGTG,0.32
12,GATAGCACGTGTGGCT,0.14
13,GTTTACACGTGATTTA,0.36
14,AGGTGCACGTGCGTAG,-0.11
15,TTTTGCACGTGGAGTA,-0.03
16,AGGTCCACGTGGTTTA,-0.06
17,GAGGACACGTGTTGTT,0.16
18,ATTCGCACGTGGGAGG,-0.22
19,ATTCGCACGTGTGGGC,-0.1
20,TGTTTCACGTGTCGAT,0.32
21,GTGGTCACGTGGTTGG,0.22
22,GTTTGCACGTGTGGCT,0.06
23,GCATGCACGTGTCGGG,-0.03
